# Measurements reported in the antibiotic and cytotoxicity screens of Wong et al. (2023).
# The other results are listed elsewhere or left out.
# System: HSkMC (human skeletal muscle cells)
# Assay: cytotoxicity call (relative viability < 0.9)
# Conditions: 10 µM
row,Structure (SMILES),cytotoxicity call
1,O=C(c1ccno1)N1C[C@@H]2CCN[C@@H]2C1,inactive
2,COc1ccc2cc(CCN)c(=O)[nH]c2c1,inactive
3,CC1=C(O)C(=O)C=C2C1=CC=C1C2(C)CCC2(C)C3CC(C)(C(=O)O)CCC3(C)CCC12C (stereo unspecified),active
4,CCN1C[C@]2(COC)CC[C@@H](OC)[C@@]34[C@@H]2[C@@H](OC)[C@@H]([C@@H]13)[C@]1(OC(C)=O)C[C@@H](OC)[C@@]2(O)C[C@H]4[C@@H]1[C@H]2OC(=O)c1ccc(OC)cc1,inactive
5,C1COC2(CN1)CNC2,inactive
6,c1csc(N2CCNCC2)n1,inactive
7,FCCN1C[C@H]2CCN[C@H]2C1,inactive
8,C[C@H]1CN([C@@H](C)CO)C(=O)CCCn2nncc2CO[C@H]1CN(C)C(=O)Oc1ccc2ccccc2c1,inactive
9,C=C(C)c1cc2cc(C(C)=O)c(O)cc2o1,inactive
10,C[C@H]1CN([C@@H](C)CO)C(=O)CCCn2cc(nn2)CO[C@@H]1CN(C)C(=O)Oc1cccc2ccccc12,inactive
11,O=C(CN1CCOCC1)c1ccc(O)cc1O,inactive
12,O=C1CCCN1CC#CCN1CCCC1,inactive
13,Cc1cnc[nH]1,inactive
14,CC(C)=CC1C(C(=O)OCc2cccc(Oc3ccccc3)c2)C1(C)C (stereo unspecified),inactive
15,Oc1ccccc1N1CCNCC1,inactive
16,C1CCC(NC2CCCC2)CC1,inactive
17,NCCc1ccc(S(=O)(=O)F)cc1,inactive
18,CCC[C@@H](CN)c1ccc(F)cc1,inactive
19,Cc1ccc(OC(=O)N(C)C[C@H]2OCc3ccccc3-c3c(n(C)c4ccccc34)C(=O)N([C@@H](C)CO)C[C@H]2C)cc1,inactive
20,Cc1nccc2c1[nH]c1cc(O)ccc12,inactive
21,Cc1nnc([C@H]2CCCNC2)o1,inactive
22,O.O=c1ccc2cc(OC3OC(CO)C(O)C(O)C3O)c(O)cc2o1 (stereo unspecified),inactive

# System: HepG2
# Assay: cytotoxicity call (relative viability < 0.9)
# Conditions: 10 µM
row,Structure (SMILES),cytotoxicity call
1,COc1cc2c(cc1OC)C1CC(=O)C(CC(C)C)CN1CC2 (stereo unspecified),active
2,N=C1NC(=O)N2CC12 (stereo unspecified),inactive
3,COc1cc([C@@H](O)CN)ccc1O,inactive
4,O=[N+]([O-])c1cc(O)c(O)c([N+](=O)[O-])c1,inactive
5,CO[C@H]1[C@@H](O)[C@@H](C)O[C@H](O[C@H]2CC[C@@]3(C)[C@H]4CC[C@@]5(C)[C@@H](C6=CC(=O)OC6)CC[C@]5(O)[C@@H]4CC[C@]3(O)C2)[C@@H]1O,inactive
6,S=C1NCCN1,inactive
7,CCC(COC(=O)c1cc(OC)c(OC)c(OC)c1)(c1ccccc1)N(C)C.O=C(O)C=CC(=O)O (stereo unspecified),inactive
8,C[C@@H]1CN([C@H](C)CO)C(=O)CCCn2cc(nn2)CO[C@@H]1CN(C)C(=O)Oc1cccc2ccccc12,inactive
9,CC(C)[C@@]1(NC(=O)[C@H]2C[C@@H]3c4cccc5[nH]cc(c45)C[C@H]3N(C)C2)O[C@@]2(O)[C@H]3CCCN3C(=O)[C@@H](Cc3ccccc3)N2C1=O,inactive
10,COc1ccn(C)c(=O)c1C#N,inactive
11,CC(C)[C@H](N)C(=O)N1CCC[C@H]1B(O)O,inactive
12,COc1cc(C2c3cc4c(cc3C(O)C3COC(=O)C23)OCO4)cc(OC)c1OC (stereo unspecified),active
13,COC(=O)C1=CCCN(C)C1,inactive
14,Cn1cnc(CCN)c1,inactive
15,N[C@H]1Cc2ccccc2[C@@H]1O,inactive
16,CC1(C)C(O)CC(=O)C2(C)C1CC(=O)C1(C)C2CCC2(C)C(c3ccoc3)OC(=O)C3OC321 (stereo unspecified),inactive
17,COCCCNC(=O)[C@@]1(Cc2ccccc2N=[N+]=[N-])N=C(c2ccc(OCCCO)cc2)O[C@H]1c1ccccc1N=[N+]=[N-],inactive
18,O=C(c1ccno1)N1C[C@@H]2CCN[C@@H]2C1,inactive
19,COc1ccc2cc(CCN)c(=O)[nH]c2c1,inactive
20,CC1=C(O)C(=O)C=C2C1=CC=C1C2(C)CCC2(C)C3CC(C)(C(=O)O)CCC3(C)CCC12C (stereo unspecified),active

row,Structure (SMILES),cytotoxicity call
1,CCN1C[C@]2(COC)CC[C@@H](OC)[C@@]34[C@@H]2[C@@H](OC)[C@@H]([C@@H]13)[C@]1(OC(C)=O)C[C@@H](OC)[C@@]2(O)C[C@H]4[C@@H]1[C@H]2OC(=O)c1ccc(OC)cc1,inactive
2,C1COC2(CN1)CNC2,inactive
3,c1csc(N2CCNCC2)n1,inactive
4,FCCN1C[C@H]2CCN[C@H]2C1,inactive
5,C[C@H]1CN([C@@H](C)CO)C(=O)CCCn2nncc2CO[C@H]1CN(C)C(=O)Oc1ccc2ccccc2c1,inactive
6,C=C(C)c1cc2cc(C(C)=O)c(O)cc2o1,active
7,C[C@H]1CN([C@@H](C)CO)C(=O)CCCn2cc(nn2)CO[C@@H]1CN(C)C(=O)Oc1cccc2ccccc12,inactive
8,O=C(CN1CCOCC1)c1ccc(O)cc1O,inactive
9,O=C1CCCN1CC#CCN1CCCC1,inactive
10,Cc1cnc[nH]1,inactive
11,CC(C)=CC1C(C(=O)OCc2cccc(Oc3ccccc3)c2)C1(C)C (stereo unspecified),inactive
12,Oc1ccccc1N1CCNCC1,inactive
13,C1CCC(NC2CCCC2)CC1,inactive
14,NCCc1ccc(S(=O)(=O)F)cc1,inactive
15,CCC[C@@H](CN)c1ccc(F)cc1,inactive
16,Cc1ccc(OC(=O)N(C)C[C@H]2OCc3ccccc3-c3c(n(C)c4ccccc34)C(=O)N([C@@H](C)CO)C[C@H]2C)cc1,inactive
17,Cc1nccc2c1[nH]c1cc(O)ccc12,active
18,Cc1nnc([C@H]2CCCNC2)o1,inactive
19,O.O=c1ccc2cc(OC3OC(CO)C(O)C(O)C3O)c(O)cc2o1 (stereo unspecified),inactive
